Experimental data taken from PubChem BioAssay AID504466 (National Center for Advancing Translational Sciences (NCATS), 2011).
Hit rate of the full screen: of about 330,000 compounds, about 4,200 (1.3%) were called active. This list was built around the results that the source calls inconclusive (neither active nor inactive); the mix of calls is not that of the screen. Calls follow the shape of the dose curve; as a rule, active = well fitted activation curve with a large enough effect; inconclusive = small, poorly fitted or top-dose-only effect; inactive = no such curve, though single readings can be large or run the other way. Potencies of inconclusive entries are doubtful fits and often do not repeat.

Assay: qHTS screen for small molecules that induce genotoxicity in human embryonic kidney (HEK293T) cells expressing luciferase-tagged ELG1; also: nearly all actives have a fitted effect of over 60% in size
Conditions: HEK293T ELG1-luciferase reporter, luminescence, 16 h; series mostly up to 46 µM
Procedure, shortened: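 Screening used a luciferase reporter fused to human ELG1 in HEK293T cells. Luminescence was read on a CCD plate imager after 16 hr exposure and 30 min ONE-Glo incubation.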
Potency is read from the fitted curve at half-maximal effect; tags tell the direction and shape of the fitted curve.

| SMILES | Potency |
| --- | --- |
| CCCOc1cccc(C(=O)N/N=C/c2ccoc2)c1 | inconclusive: 18.3 µM [activator, single point] |
| COc1ccc(NC(=O)c2ccc3ccccc3c2)cc1 | active: 2.31 µM |
| Cc1ccc2nc(SC(C)C(=O)N3CCOCC3)[nH]c2c1 (stereo not drawn) | inconclusive: 18.3 µM [activator, partial curve] |
| O=C(CCc1nc(-c2ccccc2)no1)N1CCCC1 | inconclusive: 14.6 µM [activator, single point] |
| Cc1ccc(C(=O)Nc2ncc([N+](=O)[O-])s2)cc1 | inconclusive: 0.073 µM [activator, full curve, poor fit] |
| CCN(C(=O)COC(=O)CCC(=O)c1cccs1)C1CCCCC1 | inactive |
| O=C(c1c(F)cccc1F)N1CCN(c2ccccc2F)CC1 | inactive |
| CCn1c(C)cc(C(=O)CSc2nnnn2C2CCCC2)c1C | inconclusive: 2.59 µM [activator, full curve] |
| COC(=O)Cc1cc(OC)c(OC)cc1S(=O)(=O)N(C)C | inactive |
| Cc1nc(SCc2ccc(OCCC(C)C)cc2)n[nH]1 | inconclusive: 20.6 µM [activator, partial curve, poor fit] |
| Cc1cc(C)cc(NC(=O)C(=O)NCCCN2CCCC2=O)c1 | active: 13 µM |
| COc1ccc(CNc2ncnc3cc(OC)c(OC)cc23)cc1 | inactive |
| N#Cc1c(N2CCOCC2)nsc1-c1ccc(C(F)(F)F)cc1 | inconclusive: 13 µM [activator, partial curve, poor fit] |
| Cc1cccc(C)c1NC(=O)N1CC=CCC1 | inactive |
| CCOC(=O)c1ccc2nc(C)c(C)nc2c1 | inconclusive: 20.6 µM [activator, partial curve, poor fit] |
| Cc1ccsc1C(=O)OCC(=O)N(C)C1CCCCC1 | inconclusive: 1.83 µM [activator, partial curve] |
| O=C(NNC(=O)c1cc2c(s1)CCCC2)c1ccccc1 | inconclusive: 18.4 µM [activator, partial curve, poor fit] |
| CC(C)(C)c1ccc(C(=O)/C=C2\NC(=O)CS2)cc1 | inconclusive: 2.59 µM [activator, partial curve] |
| COC(=O)[C@@H](NC(=O)N1CCN(C(=O)C2COc3ccccc3O2)CC1)C(C)C (stereo partly drawn) | inactive |
| O=Cc1ccc(OCC(=O)N2CCc3ccccc32)c(Br)c1 | inconclusive: 11.6 µM [activator, partial curve, poor fit] |
| Cc1sc(=NC(=O)c2ccco2)n(C)c1-c1ccccc1 | inconclusive: 1.46 µM [activator, partial curve] |
| Cn1cnc2cc(NC(=O)c3cccs3)ccc21 | inconclusive: 16.4 µM [activator, partial curve, poor fit] |
| COc1ccccc1CNC(=O)CSc1ccccc1 | inconclusive: 23.1 µM [activator, partial curve, poor fit] |
| CCOc1ccc2nc(NS(C)(=O)=O)sc2c1 | inconclusive: 18.4 µM [activator, single point] |

| SMILES | Potency |
| --- | --- |
| CCOC(CCn1c(SCc2cccc([N+](=O)[O-])c2)nc2ccccc2c1=O)OCC | inactive |
| CCOC(=O)N/N=C/c1cn(CCCOc2ccc(C)cc2)c2ccccc12 | inactive |
| CCOc1ccc(Nc2oc(Cc3ccccc3)nc2C#N)cc1 | inconclusive: 10.3 µM [activator, partial curve, poor fit] |
| CC(=O)Nc1ccc(NC(=O)C(C)OC(=O)C23CC4CC(CC(Cl)(C4)C2)C3)cc1 (stereo not drawn) | inactive |
| CCNc1nc(N)c(C(=O)c2ccc(Cl)s2)s1 | inconclusive: 2.91 µM [activator, full curve] |
| N/C(=N\OC(=O)c1cccs1)c1ccc(Cl)cc1 | inconclusive: 16.4 µM [activator, partial curve, poor fit] |
| CSc1nc2sc(-c3ccccc3)cc2c(=O)n1N | inconclusive: 1.64 µM [activator, partial curve, poor fit] |
| Cc1cc(NC(=O)CCCSc2nc(-c3ccco3)cc(C(F)(F)F)n2)n(-c2ccccc2)n1 | inactive |
| O=C(Nc1ccc(F)cc1)c1ccccc1 | inconclusive: 18.4 µM [activator, single point] |
| N#Cc1cc2cc3c(cc2nc1N1CCCCC1)OCCO3 | inconclusive: 2.31 µM [activator, full curve] |
| Cc1ccc(NC(=O)CN2CCOCC2)c(Br)c1 | inconclusive: 20.6 µM [activator, partial curve, poor fit] |
| O=c1[nH]c(-c2ccc(O)cc2)nc2scc(-c3cccs3)c12 | inconclusive: 16.4 µM [activator, partial curve] |
| CC(=O)c1sc(N/N=C\c2ccccc2O)nc1C | active: 6.51 µM |
| Cc1c(C(=O)N2CCc3ccccc3C2)oc2ccc(Br)cc12 | inconclusive: 25.9 µM [activator, single point] |
| COc1cc(/C=C(\C#N)C(=O)N2CCOCC2)ccc1OCc1ccccc1 | inconclusive: 18.3 µM [activator, single point] |
| CCOc1cc(/C=N/O)ccc1OCc1ccc([N+](=O)[O-])cc1 | inactive |
| Cc1cc(C)n(-c2nc3ccccc3s2)n1 | inconclusive: 14.6 µM [activator, partial curve, poor fit] |
| COc1ccc(/C=C2/NC(=O)CNC2=O)cc1 | inactive |
| S=C(Nc1ccc2c(c1)OCCO2)Nc1ccccc1Cl | inconclusive: 16.4 µM [activator, partial curve, poor fit] |
| COc1ccc(CCN2C(=O)c3cccc4cccc(c34)C2=O)cc1OC | inactive |
| O=C(N/N=C/c1ccccn1)c1[nH]c2ccc([N+](=O)[O-])cc2c1-c1ccccc1 | inconclusive: 29.1 µM [activator, single point] |
| Cc1cnc(NC(=O)c2ccccn2)s1 | inconclusive: 1.03 µM [activator, partial curve] |
| CC(C)=C(NC(=O)c1ccccc1)C(=O)N/N=C/c1ccc(O)cc1 | inactive |
| Nc1ccc2oc(=O)c(-c3ccccc3)cc2c1 | inconclusive: 16.4 µM [activator, single point] |
